Some of the results follow. Repeats are few or missing, and single values can be far off.
What was measured:
Assay in all cases: cell count relative to DMSO control; melanoma cells; higher = more viable cells
Details in all cases: library dose: standard library concentration; 72 h
[1] = test system: G361
[2] = test system: IPC-298
[3] = test system: IST-MEL1
[4] = test system: LB2518-MEL
[5] = test system: LOXIMVI
[6] = test system: MEL-HO
[7] = test system: MZ2-MEL
[8] = test system: MeWo
[9] = test system: RPMI7951
[10] = test system: RVH-421
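Also: cells treated in 1,536-well plates, then fixed and DAPI-stained, with nuclei counted from automated high-throughput microscope images.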

Structure (SMILES)	cell count [1] [%]	cell count [2] [%]	cell count [3] [%]	cell count [4] [%]	cell count [5] [%]	cell count [6] [%]	cell count [7] [%]	cell count [8] [%]	cell count [9] [%]	cell count [10] [%]
C[C@]12O[C@H](C[C@]1(O)CO)n1c3ccccc3c3c4c(c5c6ccccc6n2c5c31)CNC4=O [Lestaurtinib] + Cc1cc(Nc2cc(N3CCN(C)CC3)nc(/C=C/c3ccccc3)n2)n[nH]1 [ENMD2076] (first compound 0.02 µM, partner dose 0.2 µM)	75.2	65.3	96	59.7	101	68.5	106	65.3	96.1	82.6
C[C@]12O[C@H](C[C@]1(O)CO)n1c3ccccc3c3c4c(c5c6ccccc6n2c5c31)CNC4=O [Lestaurtinib] + COc1cc(Nc2ncc(F)c(Nc3ccc4c(n3)NC(=O)C(C)(C)O4)n2)cc(OC)c1OC [Tamatinib] (first compound 0.02 µM, partner dose 2 µM)	79.2	94.3	63.9	85.8	35.6	79.9	105	67.5	35.9	135
Cn1cc(C2=C(c3cn(C4CCN(Cc5ccccn5)CC4)c4ccccc34)C(=O)NC2=O)c2ccccc21 [Enzastaurin] + COc1ccc(-c2ccc3c(N4CCOCC4)nc(N4C[C@@H](C)O[C@@H](C)C4)nc3n2)cc1CO [KU0063794] (first compound 4 µM, partner dose 0.1 µM)	64.4	88.7	78.4	38.8	99	78	88.3	92.4	54.6	48.9
Cn1cc(C2=C(c3cn(C4CCN(Cc5ccccn5)CC4)c4ccccc34)C(=O)NC2=O)c2ccccc21 [Enzastaurin] + O=C(O)[C@@H]1[O][Sb](=[O])([O][Sb]2(=[O])[O][C@H]([C@H](O)CO)[C@H](O)[C@H](C(=O)O)[O]2)[O][C@H]([C@H](O)CO)[C@@H]1O [stibogluconate] (first compound 4 µM, partner dose 10 µM)	77.5	98.7	97.5	123	90.6	109	82.2	85.6	72.7	75.8
N.N.[Cl][Pt][Cl] [cisplatin] + CC1(C)NC(=O)N(c2ccc([N+](=O)[O-])c(C(F)(F)F)c2)C1=O [nilutamide] (first compound 8 µM, partner dose 5 µM)	95.9	111	96	87.6	68.4	93.7	113	110	85.3	75.1
C[C@]12O[C@H](C[C@]1(O)CO)n1c3ccccc3c3c4c(c5c6ccccc6n2c5c31)CNC4=O [Lestaurtinib] + C[C@]1(O)C[C@@H](c2nc(-c3ccc4ccc(-c5ccccc5)nc4c3)c3c(N)nccn32)C1 [OSI906] (first compound 0.02 µM, partner dose 2 µM)	55.4	54.6	111	67.3	79	82.2	74.3	56.8	97.9	105
C[C@]12O[C@H](C[C@]1(O)CO)n1c3ccccc3c3c4c(c5c6ccccc6n2c5c31)CNC4=O [Lestaurtinib] + Clc1ccc(Nc2nnc(Cc3ccncc3)c3ccccc23)cc1 [vatalanib] (first compound 0.02 µM, partner dose 10 µM)	57.5	49.7	86.8	55	56.1	63.1	55.8	65.2	90.4	49.6
Cn1cc(C2=C(c3cn(C4CCN(Cc5ccccn5)CC4)c4ccccc34)C(=O)NC2=O)c2ccccc21 [Enzastaurin] + O=S(=O)(c1ccccc1)N(CC(F)(F)F)c1ccc(C(O)(C(F)(F)F)C(F)(F)F)cc1 [T0901317] (first compound 4 µM, partner dose 7 µM)	68	78.7	62.1	46.6	101	79.8	99.1	71	49.4	62.7
N.N.[Cl][Pt][Cl] [cisplatin] + Oc1cc(-c2nc(-c3ccccc3)[nH]c2-c2ccncc2)ccc1Cl [L779450] (first compound 8 µM, partner dose 1 µM)	61.4	106	81.3	92.3	99.9	74.3	98.7	81.1	78.1	68.6
C[C@]12O[C@H](C[C@]1(O)CO)n1c3ccccc3c3c4c(c5c6ccccc6n2c5c31)CNC4=O [Lestaurtinib] + O=C(Nc1cccc(Cl)c1)Nc1ncc(CCNc2ncnc3ccsc23)s1 [SNS314] (first compound 0.02 µM, partner dose 0.004 µM)	82.5	84.1	58.9	58.3	61.9	69.2	77	55.3	48.4	77.5
C[As](C)SC[C@H](NC(=O)CC[C@H](N)C(=O)O)C(=O)NCC(=O)O [Darinaparsin] + COc1ccc(COc2ccc(Cc3cnc(N)nc3N)cc2OC)cc1 [GW2580] (first compound 2 µM, partner dose 5 µM)	90.2	93.7	94.3	98.1	98.3	84	105	74.2	85.6	92.6
Cn1cc(C2=C(c3cn(C4CCN(Cc5ccccn5)CC4)c4ccccc34)C(=O)NC2=O)c2ccccc21 [Enzastaurin] + C[As](C)SC[C@H](NC(=O)CC[C@H](N)C(=O)O)C(=O)NCC(=O)O [Darinaparsin] (first compound 4 µM, partner dose 2 µM)	60	76.5	79.9	71.3	82.2	90.9	89.2	71.2	49	43.7
N.N.[Cl][Pt][Cl] [cisplatin] + COc1ccc(-c2ccc3c(N4CCOCC4)nc(N4C[C@@H](C)O[C@@H](C)C4)nc3n2)cc1CO [KU0063794] (first compound 8 µM, partner dose 0.1 µM)	78.7	69.9	73.5	68.2	73.6	71.9	84.7	60.7	77.3	72.6
C[C@]12O[C@H](C[C@]1(O)CO)n1c3ccccc3c3c4c(c5c6ccccc6n2c5c31)CNC4=O [Lestaurtinib] + O=C(Nc1ccccc1)c1cc([N+](=O)[O-])ccc1Cl [GW9662] (first compound 0.02 µM, partner dose 10 µM)	62.8	74.8	97.6	50.9	55.2	64.8	58.8	55.3	81.6	59.4
N.N.[Cl][Pt][Cl] [cisplatin] + C=CCn1c(=O)c2cnc(Nc3ccc(N4CCN(C)CC4)cc3)nc2n1-c1cccc(C(C)(C)O)n1 [MK1775] (first compound 8 µM, partner dose 0.1 µM)	65.2	74	75.8		59	75.8		74.3	49.7	85.3
C[As](C)SC[C@H](NC(=O)CC[C@H](N)C(=O)O)C(=O)NCC(=O)O [Darinaparsin] + C[C@@H]1CCN(C(=O)CC#N)C[C@@H]1N(C)c1ncnc2[nH]ccc12 [CP690550] (first compound 2 µM, partner dose 5 µM)	79.8	100	103	90.8	80.1	108	114	80.9	86.9	97.5
C[C@]12O[C@H](C[C@]1(O)CO)n1c3ccccc3c3c4c(c5c6ccccc6n2c5c31)CNC4=O [Lestaurtinib] + COc1cc2ncnc(Nc3ccc(Oc4ccccc4)cc3)c2cc1OC [SrcI1] (first compound 0.02 µM, partner dose 10 µM)	33.5	59.4	84.9	71.6	75.2	79.2	70.6	52.1	54.4	96.4

From the supplement of paper PMC4604168 (melanoma cell lines)
